# The list shows a part of the results.
# System: PfHDP1 homeodomain (GST-tagged)
# Assay: gcPBM binding intensity (ln(normalized median fluorescence intensity)); higher = stronger DNA binding
# In short: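 Using an Agilent 4 × 180k array, primer-extended double-stranded 36-bp intergenic genomic probes and negative controls were exposed for 1 h to GST-fused P. falciparum DNA-binding domains expressed in E. coli. Binding was carried out in 1× PBS with 1% milk, 0.2 mg/ml BSA, 0.5% salmon testes DNA and 0.03% Triton X-100, and protein was detected with Alexa488 anti-GST antibody and a 488 nm scan. Binding intensity is the highest Masliner-normalised natural-log median intensity across replicate spots of either probe orientation.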
row,Sequence,gcPBM binding intensity (ln)
1,TTTTTTATAAATCAAATGAAAAATAAACTATTCAGA [CACACA_negctrl_site1568],5.88
2,ATACATATAAAAAAGTGTACATATTAAAATAAGTAT [XGTACX_site1310],6.24
3,TCATACAAACCTATTTGTACATAAGTATAATATATA [XGTACX_site4284],6.32
4,AATGCAAATAATAAAACACACAAAAAAAAGAAAAAA [CACACA_site1184],6.34
5,ATATCCGTTCAAAGATGTACATATATATTCTATAGA [XGTACX_site5354],6.96
6,ATTTATGTTATATATACACACACAAAAGAAAAAAAA [CACACA_site8977],6.89
7,TTTTTGTATGCTTCCCGATTACATTATGTTGTAAAT [CACACA_negctrl_site227],7.01
8,TATATATATATATATACACACATATACATATTGTTT [CACACA_site3499],9.37
9,TCCTACATATAAAAATGTACCCATTGTTTTTTTTTT [XGTACX_site7205],6.09
10,TTGTGTTAACTACCATGTACTTATACATCATAGGAA [XGTACX_site6627],6.28
11,AATGTATATAGAAACATGCACACGTGGTTGTATATA [CACACA_site3278],7.97
12,ATTTCAAATTAATTTACACACTTCATACTAAAAGAC [CACACA_site3176],6.91
13,TTGATATATAATAATACACACTTACATAATTAATTA [CACACA_site4320],6.68
14,AAGTATTACAACCACACACACACCTATATATCATAG [CACACA_site7878],6.71
15,ATCTTTTACGAATACACACACATAAAGAAAAAAAAA [CACACA_site1331],6.64
16,ATTATATTCTCCTTCACACACAAAAATATTTCATCA [CACACA_site5326],6.91
17,TTACGATTAAATATAACACACAACATATTTTTAATA [CACACA_site2967],6.53
18,AAGGATATGAAAAGTAGTACAAAATTTAGAACACCC [XGTACX_site4758],7.19
19,CACAAAAATTTATACACACACATATATAATATATAT [CACACA_site152],6.89
20,TCTTAAAATCGGAAATGAAATAAAGTTTACAATATG [TGCATGCA_negctrl_site553],6.28
21,TGATTCTGTCATGGTGCACACCAGAACCATTATAAA [CACACA_site1965],9.59
22,TGTTTAATCACATGTTTGCACTTTCCTTTTGTAAAT [GTGCAC_site9893],8.65

row,Sequence,gcPBM binding intensity (ln)
1,ATATATAAATATATATGTACACACATATACATGTTG [XGTACX_site6653],6.57
2,AATTATTCTATATATTGTACATGTTTGTTTTTTTTT [XGTACX_site3130],6.61
3,CCAAAATACATTAAACGTACATGTCCTAATAAGATA [XGTACX_site21],6.78
4,TTCTTATATATATACACACACAAAATATCTACAATG [CACACA_site736],6.97
5,TTGTTTTTATAAATATTATTACAATGAAAAAAAAAA [TGCATGCA_negctrl_site185],6.35
6,TAATATATATTATTATGTACATATATTGATTCCTTG [XGTACX_site6830],6.97
7,TATTTATTAATATGTACACACATCAACCATATTAAC [CACACA_site7001],6.8
8,TTTGAGTGCACATACACACAGACATACATTTAAATA [CACACA_site3403],10.4
9,ATGTTTAATTTTTTTTTGTCCCTATAGAAGTGTCAA [CACACA_negctrl_site1103],6.49
10,AAAACAAACAGACACACACACATATATATATATATA [CACACA_site3655],9.44
11,AATGAATAAATAAACACACACACATATATAAATATG [CACACA_site6160],6.94
12,ATATAAATATGTTCTGCACACAAATAAGTGTTTGAA [CACACA_site9291],8.49
13,TTTAAAATTTTTTTTTTTTTTTTTTTTTTTTTTTAT [TGCATGCA_negctrl_site213],5.81
14,ATAACCTAATAATACACACACATGAATATATAGAAT [CACACA_site963],6.72
15,AAAAAAAAAAAAAAAAGTACGTATCAAAGCATCAAA [XGTACX_site880],6.5
16,AGGTTATAAATAAATACACACATACAAAAATATGAC [CACACA_site4773],6.44
17,AATCTGATCTTTTAAAGTACACAAAAAAAAAAAAAA [XGTACX_site115],6.56
18,GTTTAACTGTTTTATACACACAATGTATACAATAAA [CACACA_site2959],6.88
19,CATATATATATATGTACACACATTAATAAAAAAAAA [CACACA_site3230],6.49
20,AATGAACACCTAAAATGTACGTACAAATATATTTTA [XGTACX_site7067],6.85
21,ATAAATAATAAGGTTACAACAAACACACAAAGGAAT [XGTACX_negctrl_site611],7.27
22,GGTTATAACCCACATGCACACGTAAATAAATATTAT [CACACA_site5992],8.74

row,Sequence,gcPBM binding intensity (ln)
1,TGTCCAATTTATTGTGCACACCTCAAAAGTGGGTAA [CACACA_site3826],11.1
2,TAAAAAAAAAAGTATACACACTTCTTAATGTCAACA [CACACA_site4818],5.98
3,ATGATGGAATATTCTACACACAATTAATAAACAAAC [CACACA_site1045],6.98
4,ATATAATCCTTTCAAACACACAAAATATAATTAATA [CACACA_site1829],6.66
5,TTTTTTTATAAATTCACACAAAATATAATATTAAAA [CACACA_site4766],6.17
6,CTATATATTTTTCATTGTACACAAATTAAAGAAAAA [XGTACX_site8385],6.61
7,AATGTCATCATATTCATATATATTTATTTCTTTTTG [GTGCAC_negctrl_site500],6.38
8,TTGTATTGTATATGCACACATAGAACACTTTTTTTT [CACACA_site4133],8.44
9,TAAATTTTGTTTAGCACACACACATACATACATACA [CACACA_site3155],7.46
10,TTGATATACTATGACACATGCAAATAAAACATTATA [TGCATGCA_site535],6.7
11,TAATCATTTTTAAATTGTACAATTTATATAATAAGT [XGTACX_site6081],6.52
12,TATATCTGTATCATTACACACATGTATACTTATTTG [CACACA_site6134],6.89
13,TATTTTTTAAGTGAACATTTGTTATTATATTCTTAT [GTGCAC_negctrl_site172],6.42
14,GATGATACACAGGTGTTGCACTTAAATGCAGTTCTT [GTGCAC_site9627],8.13
15,ATTAAAATAGAAAAAAAAAAAAAAAAAAAAAAAAAA [CACACA_negctrl_site1117],6.36
16,TATGGGGAACTATAATGTACGTATTCCTCATATATA [XGTACX_site338],6.3
17,TTTTCAAAATGTTGTACACACAAAAAAAAAAAAAAA [CACACA_site1550],6.43
18,AAAGACTTTTTATGAGCACACACATATATTATGGAG [CACACA_site8254],6.98
19,GATATATAGGTATTTACACACAATGTGAGATCTATA [CACACA_site7575],6.37
20,TGATAATAAGCATACACACACACACTAAAAAAAAAA [CACACA_site6478],6.72
21,ATGATTATACAAAATATACACACGTGGACACAAATA [CACACA_site8304],7.17
22,AGATAAAATAAATACACACACATAAATACGTACAAA [CACACA_site4739],6.94

row,Sequence,gcPBM binding intensity (ln)
1,TTTCTATAATATATATGTACATATATAATATGTCGT [XGTACX_site3676],6.58
2,AGAAGATTAAAAATTGCACACAAAAATATATTTTCT [CACACA_site8359],9.88
3,TACCTATATACATACACACACATATAACCAATGTAG [CACACA_site7096],6.94
4,TAATAAATAAAAACATGTACATATATACATATATGT [XGTACX_site485],6.35
5,TAAACTTTCCAGTGTTGTACATAATAATTATTATAT [XGTACX_site8896],6.55
6,AAAGATATGAAATATACACACTTCTTTGGTATTATT [CACACA_site6352],6.22
7,ATTCATTCATATGTTACACACACACGCCCACATAAA [CACACA_site7513],7.17
8,TAAAAAAAGGTTATTGGTACACACATATGTATATAT [XGTACX_site1029],6.56
9,TTATATATATATATATATATTTACATAATAATATGT [GTGCAC_negctrl_site388],7.08
10,AGTTTGTCAATCAACACACACCTATTTATTATATAT [CACACA_site6030],6.42
11,TACAAGCCCAATTCAAGTACATATATATATATATAT [XGTACX_site5569],9.41
12,TATTTATGTATATGCTGTACGCATTTGTGAAACATA [XGTACX_site4688],6.63
13,AACCAATTAGAAGGATCCAGAACTTATTTGTTTTTA [CACACA_negctrl_site1744],5.85
14,AGAAAATATACAAAACGTACTTATATATTATATCTA [XGTACX_site3104],5.97
15,AAAAAAAAAAAAGAAACACACATATATATATATATA [CACACA_site140],9.3
16,GTTTGATTAAACTTGACACACATATATATAAATATA [CACACA_site1784],6.7
17,GTTAGAGGGAAAAAGAGTACATATATGTGGATAATT [XGTACX_site2064],6.96
18,TCATATATCATAACAGTGCAAAAAAAAAAAAATTAT,8.69
19,TATGAAAGAAATAGTACACACATAAACATTTGTAAA [CACACA_site2783],6.22
20,TAATATTCAATTATACGTACACATATATATATATAT [XGTACX_site4245],9.22
21,GTTGCGTATATATACACACATACATATATATATATA [CACACA_site1607],9.15
22,TTATATAATAAAAATTGTACATATTATATATATATT [XGTACX_site3427],6.19

# Source: the supplement of paper PMC11417369
